Measurements published in PubChem BioAssay AID686970 (National Center for Advancing Translational Sciences (NCATS), 2013).
Hit rate of the full screen: of about 360,000 compounds, about 6,000 (1.7%) were called active. The shares of active, inactive and inconclusive entries below differ from those in the screen. The call rests on the fitted dose curve; in most records, active means well fitted cell-killing curve with a large enough effect; inconclusive means small, poorly fitted or top-dose-only effect, or effect the other way; inactive means flat fitted curve, though single readings scatter. Potencies of inconclusive entries are left out as doubtful fits.
Potency means the concentration at half of the fitted maximal effect; tags describe the fitted curve by direction and shape.

Assay: qHTS for induction of synthetic lethality in tumor cells producing 2HG: qHTS for the HT-1080-NT fibrosarcoma cell line;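 further: NT is the 2HG producing partner of a matched IDH1 knockdown line; nearly all actives have a fitted effect of over 55% in size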;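 on activity, negative = less viability: 0% = DMSO-treated cells and -100% = media-only wells without cells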
Details: HT-1080-NT fibrosarcoma viability, CellTiter-Glo ATP luminescence, 48 h; activity, negative = less viability: at 46.1 µM (top of the series) unless noted
Outline: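 A 48-hour cytotoxicity screen used HT-1080-NT cells plated 2 hours before compound delivery. ATP-based CellTiter-Glo luminescence measured viability, normalized to DMSO and no-cell controls.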
For `N#CC1=C(N)Oc2cc(N)ccc2C1C1CCCCC1` (stereo unspecified), the Potency was active: 20.6 µM. For `O=C1Nc2ccc(Br)cc2C12NNc1ccccc1O2` (stereo unspecified), the Potency was “inactive”. For `N=C1C(c2nc3ccccc3s2)=C(O)CN1Cc1ccccc1`, the Potency was inconclusive [cytotoxic, full curve]. In the case of `COc1ccc(C2C3=C(CCCC3=O)Nc3nc(-c4cc(OC)c(OC)c(OC)c4)nn32)cc1OC` (stereo unspecified), the Potency is reported as inconclusive [cytotoxic, partial curve, poor fit]. For `COc1ccc(C(=O)CSc2nnc(-c3cc4ccccc4cc3O)n2Cc2ccco2)cc1`, the Potency was inconclusive [cytotoxic, single point]. With `COc1cccc(CNC(=O)c2nnn(CC(=O)Nc3cc(C)ccc3C)c2N)c1` the Potency was inconclusive [cytotoxic, single point]. In the case of `COc1ccc(OC)c(Nc2cc(C)nc3ccc(C)cc23)c1`, the Potency is reported as active: 5.17 µM. In the case of `NS(=O)(=O)c1ccc2nc(NC(=O)Nc3ccccc3F)sc2c1`, the Potency is reported as “inactive”. In the case of `Oc1ccc(-c2nc3ccc4ccccc4c3c3c2CCC3)cc1O`, the Potency is reported as inconclusive [cytotoxic, full curve, poor fit]. In the case of `COc1ccc2c(c1)N(C)/C(=C/c1cccc[n+]1C)S2`, the Potency is reported as inconclusive [cytotoxic, partial curve]. In the case of `COc1cc(O)c(C(CC(=O)N2CCN(c3ccccc3)CC2)c2ccc(N(C)C)cc2)c(OC)c1` (stereo unspecified), the Potency is reported as “inactive”. For `CC(C)(C)c1ccc(CC(=O)N2CCC2(C)C(=O)O)cc1` (stereo unspecified), the Potency was “inactive”. With `CNCC/C=C1/c2ccccc2CSc2ccccc21` the Potency was active: 16.4 µM. With `COc1ccc(/C(C)=N/Nc2ncc(Cl)cc2Cl)c(O)c1` the Potency was active: 4.61 µM. For `COCCN1CCC(CNCc2c(C(=O)N3CCCCC3)nc3c(C)cccn23)C1` (stereo unspecified), the Potency was “inactive”. With `CCC1(C)Cc2c(sc3c2c(=O)n(C)c2nnc(SCc4ccccc4)n32)CO1` (stereo unspecified) the Potency was “inactive”. In the case of `CC(=O)c1sc(N/N=C\c2ccccc2O)nc1C`, the Potency is reported as inconclusive [cytotoxic, single point]. With `Cc1ccc(-c2cc(-c3ccccc3O)nc(N/N=C/c3cccnc3)n2)cc1` the Potency was inconclusive [rising, single point]. With `CCOc1cc(/C=N/O)ccc1OCc1ccc([N+](=O)[O-])cc1` the Potency was “inactive”. For `CC1(C(=O)Nc2ccc3c(c2)OCO3)CCN1Cc1cccc2c1OCO2` (stereo unspecified), the Potency was “inactive”. For `COC(=O)c1ccccc1NC(=O)CSc1[nH]c(=O)cc(C)c1C#N`, the Potency was inconclusive [cytotoxic, single point]. For `Clc1ccc(-c2nnc(SCc3nc4ccccc4[nH]3)o2)c(Cl)c1`, the Potency was “inactive”. With `CCCN1CCN(C(=S)Nc2ccc3nc(N4CCN(CC)CC4)cc(C)c3c2)CC1` the Potency was inconclusive [cytotoxic, single point]. With `O=C(COc1ccc(Oc2ccccc2)cc1)NCc1cn2ccccc2n1` the Potency was active: 2.59 µM. With `O=C(N/N=C/c1ccccn1)c1[nH]c2ccc([N+](=O)[O-])cc2c1-c1ccccc1` the Potency was inconclusive [cytotoxic, partial curve]. For `COc1cc(OC)c(C(=O)/C=C/c2ccc(OCc3ccccc3)c(OC)c2)c(OC)c1`, the Potency was inconclusive [cytotoxic, single point]. In the case of `Cc1cc(C(=O)CN2C(=O)C(=O)N(Cc3ccccc3)C2=O)c(C)n1CC1COc2ccccc2O1` (stereo unspecified), the Potency is reported as “inactive”. For `COc1ccc(/C=C2/NC(=O)CNC2=O)cc1`, the Potency was “inactive”. With `CCc1ccc(NC(=O)C(C)OC(=O)c2ccc(NS(=O)(=O)c3ccc(C)c([N+](=O)[O-])c3)cc2)cc1` (stereo unspecified) the Potency was inconclusive [cytotoxic, single point]. In the case of `Cc1ccccc1NC(=O)Cc1nc(COC(=O)c2cccc([N+](=O)[O-])c2)cs1`, the Potency is reported as “inactive”. In the case of `Cc1cnc(NC(=O)c2ccccn2)s1`, the Potency is reported as inconclusive [cytotoxic, partial curve, poor fit]. For `O=C(Nc1ccc(N2CCOCC2)cc1)Nc1ccc(Cl)c(Cl)c1`, the Potency was inconclusive [cytotoxic, single point]. With `CC(C)(C)C(=O)Nc1ccc(N=Nc2ccccc2)cc1` the Potency was “inactive”. With `Cc1cc(C)nc(-n2nc(C)c(Sc3ccc(F)cc3)c2N)n1` the Potency was active: 3.98 µM. In the case of `CCOC(=O)C1CCCN(C(=O)Cn2sc3nc(C)cc(C)c3c2=O)C1` (stereo unspecified), the Potency is reported as inconclusive [cytotoxic, single point]. For `CNc1nc(NCCOc2ccccc2)c2sccc2n1`, the Potency was “inactive”. In the case of `Cc1cccc(NCCC(=O)c2ccc(Br)cc2)c1`, the Potency is reported as inconclusive [cytotoxic, single point]. In the case of `CCOc1ccc(-c2cc(C(=O)O)c3ccccc3n2)c(OCC)c1`, the Potency is reported as active: 14.1 µM. In the case of `CCC(C)(C)NC(=O)C(c1ccc(C)cc1)N(Cc1cccnc1)C(=O)c1csnn1` (stereo unspecified), the Potency is reported as “inactive”. With `OCCNCc1cc(Br)ccc1OCc1ccc(Cl)cc1Cl` the Potency was active: 23.1 µM. With `CN(C)c1cc[n+](CC(=O)N2c3ccccc3Sc3ccccc32)cc1` the Potency was inconclusive [cytotoxic, partial curve]. With `CCCCC1CCC(C(=O)Nc2ccc(N3CCOCC3)cc2N2CCOCC2)CC1` (stereo unspecified) the Potency was “inactive”. In the case of `COc1ccc(CN2CCN(Cc3ccc4cc(F)ccc4n3)CC2CCO)c(C)c1C` (stereo unspecified), the Potency is reported as inconclusive [cytotoxic, single point]. For `COc1cc(-c2c(C#N)c(N)nc(SCc3ccncc3)c2C#N)cc(OC)c1OC`, the Potency was inconclusive [cytotoxic, single point]. With `Oc1ccc2ccccc2c1/C=C/c1ccc2c(Br)cc(Br)c(O)c2n1` the Potency was inconclusive [cytotoxic, single point]. In the case of `CCOc1ccc(NC(=O)Cn2nnc(C(=O)NCc3ccc4c(c3)OCO4)c2N)cc1`, the Potency is reported as inconclusive [cytotoxic, single point]. For `O=c1cc(C(F)(F)F)[nH]c2ccccc12`, the Potency was inconclusive [cytotoxic, single point]. In the case of `Cc1ccccc1NC(=O)C(=Cc1ccc(C(=O)O)cc1)C(=O)Nc1ccccc1C`, the Potency is reported as active: 6.51 µM. In the case of `CC(=O)Nc1cc(-c2ccc(CO)cc2)cn2c(-c3ccc(F)c(Cl)c3)cnc12`, the Potency is reported as active: 32.6 µM. For `O=C(NCCCN1CCOCC1)c1ccccc1-c1ccccc1`, the Potency was “inactive”. With `CCN(CC)C1Oc2cc3c(cc2C(c2cccc(OC)c2O)C1C)OCO3` (stereo unspecified) the Potency was inconclusive [cytotoxic, single point]. In the case of `CC1CCCC(C)N1CCCNC(=O)C1CCCN(c2ncnc3c2nc2n3CCCCC2)C1` (stereo unspecified), the Potency is reported as “inactive”. With `CC(=O)c1cccc(OCc2cc(C(=O)N(C)CCc3ccccn3)no2)c1` the Potency was “inactive”. For `COc1ccc(C(=O)C[n+]2cccc(C(N)=O)c2)cc1`, the Potency was “inactive”. For `Cc1ccc2nc3c(c(Nc4cccc(O)c4)c2c1)CCC3`, the Potency was active: 18.4 µM. For `Cc1ccc2oc(C(=O)NC3CCS(=O)(=O)C3)c(C)c2c1` (stereo unspecified), the Potency was inconclusive [rising, single point]. For `Cn1c(SCc2ccccn2)nnc1-c1ccccc1`, the Potency was “inactive”. With `COc1ccc(NC(=O)c2cccc3c(-c4ccc(OC)cc4C)coc23)cc1` the Potency was inconclusive [cytotoxic, single point]. In the case of `CC(C)COCc1ccc(O)c2ncccc12`, the Potency is reported as active: 20.6 µM. With `Cc1ccc(Nc2ncnc3c2cnn3C)cc1` the Potency was “inactive”. For `CN1CCN(C(CNC(=O)C(=O)NC2CCCCC2)c2ccc(F)cc2)CC1` (stereo unspecified), the Potency was “inactive”. For `CCC1=NN(S(=O)(=O)c2ccc(C)cc2)C(O)(C(F)(F)F)C1` (stereo unspecified), the Potency was inconclusive [rising, single point]. With `COc1ccc(C(CNC(=O)c2ccc(-c3ccccc3Cl)o2)N2CCOCC2)cc1` (stereo unspecified) the Potency was “inactive”. For `COC(=O)c1ccc2nc(-c3ccco3)c(Cc3ccc(OC)cc3C)n2c1`, the Potency was inconclusive [cytotoxic, single point]. For `Cc1ccc(Cc2c(-c3cccc(Cl)c3)nc3ccc(C)cn23)cc1`, the Potency was inconclusive [cytotoxic, single point]. With `Cc1ccc(NS(=O)(=O)c2cccc(C(=O)NCC(c3ccc(F)cc3)N3CCOCC3)c2)cc1` (stereo unspecified) the Potency was inconclusive [cytotoxic, single point]. With `CSc1ccc(/C=C/C(=O)c2ccc(NC(=O)C(C)C)cc2)cc1` the Potency was inconclusive [cytotoxic, single point]. For `Cc1ccc(Nc2nc(C(=O)N3CCC(C(=O)NCCN4CCOCC4)CC3)cs2)cc1`, the activity, negative = less viability was inconclusive: 3.55%. In the case of `Cc1cccc(C(=O)OCC(=O)c2c(N)n(CC(C)C)c(=O)n(C)c2=O)c1O`, the activity, negative = less viability is reported as inconclusive: -31.3% [cytotoxic]. In the case of `Cc1ccc(SCc2[nH]nc3c2C2(C(=O)Nc4ccc(F)cc42)C(C#N)=C(N)O3)cc1` (stereo unspecified), the Potency is reported as inconclusive [cytotoxic, single point]. With `O=C(Cn1c(O)c(/C=C2\C=Nc3ccc(Br)cc32)sc1=O)N1CCCC1` the Potency was inconclusive [cytotoxic, partial curve]. With `CC(=C/C(=O)O)/C=C/c1ccco1` the Potency was inconclusive [cytotoxic, single point]. In the case of `Cc1ccc(NC(=O)CN(C)C(=O)c2ccc(C(F)(F)F)cc2)cc1`, the Potency is reported as “inactive”. In the case of `CCC(C(=O)NC1CCCCC1)n1c(SCc2cccc(F)c2)nc2ccncc21` (stereo unspecified), the Potency is reported as inconclusive [cytotoxic, single point]. With `CC1=CC(C)(C)N2C(=O)C3(C(C#N)=C(N)OC4=C3C(=O)CC(C)(C)C4)c3c(C)c(C)cc1c32` (stereo unspecified) the Potency was inconclusive [cytotoxic, single point]. For `N#Cc1nc(-c2ccccc2F)oc1NCc1ccccc1`, the Potency was “inactive”.
